B1: CPEB3 Ribozyme (parent)
chain: UAACAGGGGGCCACAGCAGAAGCGUUCACGUCGCAGCCCCUGUCAGAUUCUGGUGAAUCUGCGAAUUCUGCUGUAUAUCUC

Read counts are not given, so values of variants with three or more changes are uncertain.

The data set covers variants of B1. Nature of the data set: self-cleavage, relative activity (ratio to wild type); higher = more cleavage; in vitro, sequencing. Summed up:
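CPEB3 self-cleaving ribozyme mutant libraries were made by rounds of error-prone PCR, barcoded, and transcribed in vitro with T7 RNA polymerase for 5 hours at 37°C. Cleavage occurred during transcription and a 15 min DNase I step before EDTA stop. RNAs were reverse transcribed with template switching and Illumina-sequenced, with DNA sequencing mapping barcodes to variants. Relative activity is the variant's cleaved/total read fraction divided by wild type's (minimum 5 reads), averaged across three batches.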
Regarding UAACAGGUGGCCACAGCAGGAGCGUUCGCGUCGCAGCCCCUGUCAGAUUCUGGUGAAUCUGCGAAUUCUGCUGUAUAUCUC, the self-cleavage is 0.38. The figure for UAACAGGCGGCCACAGCAGAAGCGUUCACGUCGCAGCCCCUGUCAGAUUCAGGUGAAUCUGCGAAUUCUGCUGUAUAUCCC is 0.07; for UAACAGGUGGCCACAGCAGAAGCGUUCGCGUCGCAGCCCCUGACAGAUUCUGGUGAAUCUGCGAAUUCUGCUGUACAUCCC it is 0.05; for UAACAGGUGGCCACAGCAGAAGCGUUCUCGUCGCAGCCCCUGUCAGAUUCUGGUGAAUCUGCGUAUUCUGCUGAAUAUCUC it is 0.12. With UAACAGGUGGCCACAGCAGUAGCGUUCACGUCGCAGCCCCUGUCAGGUCCUGGUGAAUCUGCGAAUUCUGCUGUAUAUCUC, the self-cleavage worked out at 0.05. The figure for UAACAGGUGGCCACAGCAGAAGCGUUCGCGUUGCAGCCCCUGUCAGAUUCUGGUAAAUCUGCGAAUCCUGCUGUAUAUCUC is 0.05; for UAACAGGUGGCCACAGCGGAAGCGUUCACGUCGCAGCCCCUGCCGGAUUCUGGUGAAUCUGCGAAUUCUGCUGUAUAUCUC it is 0.05; for UAACAGGUGGCCACGGCAGAAGCGUUCACGUCGCAGCCCCUGUCAGAUUCUGGUGAAUCUGCGAAUUCUGCGGUAUAUCUU it is 0.26. On to UAACAGGUGGCCUCAGCAGAAGCGCUCACGUCGCAGCCCCUGUCAGAUUCUGGUGAAUCUGCGAAUUCCGCUGUAUAUCUC, for which the self-cleavage was found to be 0.07. The value for UAACAGGUGGCCACUGCAGAAGCGUUCACGCCGCAGCCCCUGUCAGUUUCUGGCGAACCUGCGAAUUCUGCUGUAUAUCUC was 0.04. The figure for UAACAGGUGGCCACAGCAGUAGCAUUCACGUCGCUGCCCCUGUCAGAUUAUGGUGAAUCUGCGAAUUCUGCUGUAUAUCUC is 0.1; for UAACAGGUGGCCACAGCAGAGGCGUUCACGUCGCAGCCCCUGUCGGAUUCUGGUGAAUCUGCGAAUUCUGCUGUAUAUCUC it is 0.09; for UAACAGGUGGCCACGGCAGAAGCGCUCACGACGCAGCCCCUGUCAGAUUCUGGCGAAUCUGCGAAUUCUGCUGUAUAUCUC it is 0.05. Turning to UAACAGGUGGCCACAGCAGAUGCGCUCACGUCGCAGCCCCUGUCAGAUUCUGGUGAAUCUGCGGAGUCUGCUGUAUAUCUC, the self-cleavage is 0.05. The figure for UAACAGGUGGCCACUGCAGAUGCGUUCACGUCGCAGCCCCUGUCAGAUUCUGGUGAAUCUGCGAAUUCUGCUGUAUAUCCC is 0.17; for UAACAGGUGGCCACAGCAGAGGCGUUCACGUCGCAGCCCCAGUCAGAUUCUGGUGAAUCUGCGAAUUCUGCUGUAUAUCCC it is 0.44; for UAACAGGUGGCCACGGCAGAAGCGUUCACGUCGCUGCCCCUGUCAGAUCCUGGUGAAUCCGAGAAUUCUGCUGUAUAUCUC it is 0.04. As for UAACAGGUGGCCACCGCAGAAGCGUCCACGUCGCAGCCCCUGUCAGAUUCUGGUGAGUCUGCGAAUUCUGCUGUAUAUCUC, the self-cleavage came out at 0.06. The value for UAACAGGUGGCCACAGCGGUAGCGCUCACGUCGCAGCCCCUGUCAGAUUCUGGUGAAUCUGCGAAUUCUGCUGUAUAUCCC was 0.05; that for UAACAGGUGGCCACGGCAGAGGCGUUCACGUCACAGCCCCUGUCAGAUUCUGGUGAAUCAGCGAAUUCUGCUGUAUAUCUC was 0.06; that for UAACAGGUGGCCACAGCAGAGGAGUUCGCGUCGCAGCCCCUGUCAGAUUCUGGUGAAUCUGCGAAUUCAGCUGUAUAUCUC was 0.11.

UAACAGGUGGCCACUGCAGAAGCGUUCACGUCGCAGCCCCUGCCAGAUUCUGGUGUAUCUGCGAAUUCUGCUGUAUAUCUC: the self-cleavage amounted to 0.08.

With UAACAGGUGGCCACAGCGGAAGCGUUCACGCCGCAGCCCCUGUCAGAUUCUGGUGAAUCUGCGAAGUCUGCUGUAUUUCUC, the self-cleavage turned out to be 0.37.

UAACAGGUGGCCUCAGCAGAAGCGUUCACGUCGCAGCCCUUGUCAGGUUCUGGAGAAUCUGCGGAUUCUGCUGUAUAUCUC: the self-cleavage came out at 0.02.

Regarding UAACAGGUGGCCUCAGCUGAAGCGUUCAUGUCGCAGCCCCUGUCAGAUUCUGGUGAAUCAGCGAAUUCUGCUGUAAAUCUC, the self-cleavage worked out at 0.05. The figure for UAACAGGUGGCCACAGCAGUAGCGUUCCCGUCCUAGCCCCUGCCAGAUUCUGGUGAAUCUGCGAAUUCUGCUGUAUAUCUC is 0.04; for UAACAGGUGGCCACAGCAGAGGCGUUCACGCCGCAGCCCCUGUCAGAUUCUGGUGAAUCCGCGAAUUCUGCUGUAUAUCUC it is 0.06; for UAACAGGUGGCCACGGCAGAAGCGUUCACGUCGCAGCCCCCGUCAGAUUCUGGUGAAUCCGCGAAUUCUGCUGUAUAUCAC it is 0.06. Regarding UAACAGGUGGCCGCAGCAGAAGCGUUCACGUCGCAGCCCCUGUCCGAUUCUGGUGAAUCUGCGAAUUCUGCUGUAUAUCUC, the self-cleavage worked out at 0.22. The figure for UAACAGGUGGCCACAGCUGGAGCGUUCACGUCGCAGCCCCUGUCAGAUUCUGGUGAAUCUGCGAAUUCUGCUGUAUAUCUC is 0.06. For UAACAGGUGGCCACAGCAGGGGCGUUCACGUCGCAGCCCCAGUCACAUUCUGGUGAAUCUGCGGAUUCUGCUGUAUAUCUC, the self-cleavage worked out at 0.05. The value for UAACAGGUGGCCGCAGCAGAAGCGUUCACGUCGCGGCCCCCGUCAGAUUCAGGUGAAUCUGCAAAUUCCGCUGUAUAUCUC was 0.07; that for UAACAGGUGGCCACAGCAGAAGCGUUCGCGUCGCAGCCCCCGUCAGAUUCUGGUGGAUCUGCGGAUUCCGCUGUGUAUCUC was 0.03; that for UAACAGGUGGCCACGGCAGAAGGGUUCACGACGCAGCCCCUGUCUGAUUCCGGUGAAUCUGCGAAUUCUGCUGUAUAUCUC was 0.

The record behind these values is the RNAGym collection of RNA variant scans (doi:10.1093/nar/gkz1192).
